Among all 310,000 compounds or so, about 2,200 (0.71%) showed an effect of 50% or more. The effect is printed as a negative number. The list shows a part of the results.

This test deals with human ether-à-go-go-related gene (hERG) potassium channel (human, UniProt Q12809). As to the kind of experiment: primary screen, population patch clamp on CHO cells stably expressing hERG.
Chain of human ether-à-go-go-related gene (hERG) potassium channel (Q12809 whole entry, looked up): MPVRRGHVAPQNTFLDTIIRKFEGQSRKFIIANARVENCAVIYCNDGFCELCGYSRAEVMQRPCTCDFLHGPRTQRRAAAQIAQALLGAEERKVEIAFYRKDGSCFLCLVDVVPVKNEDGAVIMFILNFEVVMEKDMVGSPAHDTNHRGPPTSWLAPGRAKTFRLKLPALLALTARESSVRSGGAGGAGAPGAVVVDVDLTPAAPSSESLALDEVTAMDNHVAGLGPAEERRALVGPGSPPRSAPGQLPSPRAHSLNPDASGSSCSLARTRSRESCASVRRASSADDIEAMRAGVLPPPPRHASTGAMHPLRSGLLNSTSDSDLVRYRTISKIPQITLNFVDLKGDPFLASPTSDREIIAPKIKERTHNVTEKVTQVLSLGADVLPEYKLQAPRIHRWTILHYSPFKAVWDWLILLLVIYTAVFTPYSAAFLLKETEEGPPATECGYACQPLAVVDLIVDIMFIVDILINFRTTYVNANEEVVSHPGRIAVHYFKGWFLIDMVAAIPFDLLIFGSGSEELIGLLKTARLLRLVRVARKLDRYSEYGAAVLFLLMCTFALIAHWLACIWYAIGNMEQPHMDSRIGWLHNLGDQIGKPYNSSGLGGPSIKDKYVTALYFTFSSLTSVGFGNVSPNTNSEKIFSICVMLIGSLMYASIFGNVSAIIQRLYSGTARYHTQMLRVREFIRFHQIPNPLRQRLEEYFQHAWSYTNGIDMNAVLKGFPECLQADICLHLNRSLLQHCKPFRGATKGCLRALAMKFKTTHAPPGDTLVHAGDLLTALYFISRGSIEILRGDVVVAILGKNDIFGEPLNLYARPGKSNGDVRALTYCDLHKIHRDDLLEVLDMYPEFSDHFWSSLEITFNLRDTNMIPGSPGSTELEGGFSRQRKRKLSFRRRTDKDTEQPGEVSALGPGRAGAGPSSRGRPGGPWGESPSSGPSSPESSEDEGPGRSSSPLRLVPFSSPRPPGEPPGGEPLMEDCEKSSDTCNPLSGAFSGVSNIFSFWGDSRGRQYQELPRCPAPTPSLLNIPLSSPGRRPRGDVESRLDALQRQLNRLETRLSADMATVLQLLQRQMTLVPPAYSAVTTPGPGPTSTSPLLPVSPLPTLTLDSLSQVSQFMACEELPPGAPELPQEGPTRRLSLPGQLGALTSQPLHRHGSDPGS
As for `COc1ccc(CCNC(=O)C(C)OC(=O)c2nsc(Cl)c2Cl)cc1OC` (stereo not drawn), the “hERG current change (%, negative = inhibition) at 1uM” value stood at 8.84%.
As for `CC(CC(=O)NCCc1ccc(F)cc1)c1ccccc1` (stereo not drawn), the “hERG current change (%, negative = inhibition) at 1uM” value turned out to be 8.58%.
Under `Cc1nc2sc3c(c2c2nnc(SCC(=O)NCc4ccco4)n12)CCCC3` stands -2.85%; under `COc1ccc(N2C(C(C)=O)=NN(c3ccccc3)C2c2cccs2)cc1` (stereo not drawn), 11.5%.
Under `CCOc1ccc(-c2nc(-c3ccncc3)no2)cc1OCC` stands 13.7%; under `Cc1ccc(F)cc1NC(=O)Cc1ncc(C(F)(F)F)cc1Cl`, 4.55%; under `CC(Oc1ccc(S(=O)(=O)N2CCCC2)cc1[N+](=O)[O-])C(=O)NC(C)c1ccccc1` (stereo not drawn), 5.72%.
Turning to `CCOc1ncccc1C(=O)OCC(=O)Nc1ccc2c(c1)OCO2`, the “hERG current change (%, negative = inhibition) at 1uM” value worked out at 11.3%.
Under `NS(=O)(=O)c1ccc(CCNC(=O)CSc2nc3ccsc3c(=O)n2C2CC2)cc1` stands 12.5%.
Under `COc1ccccc1-c1cc2nc(C)c(CCC(=O)NC(C)CCc3ccco3)c(C)n2n1` (stereo not drawn) stands -9.4%; under `CNc1ccccc1C(=O)OCC(=O)c1ccc(F)cc1`, 7.17%; under `Cc1ccc(C)c(NC(=O)[C@@H]2CCCN2S(=O)(=O)c2ccccc2F)c1`, 31.4%.
Under `O=C(C1CCC1)N1CCN(S(=O)(=O)c2ccc([N+](=O)[O-])cc2)CC1` stands -15.3%.
Turning to `Cc1ccc2c(c1)N(C(=O)CCC(=O)NC1CCCCCC1)CCO2`, the “hERG current change (%, negative = inhibition) at 1uM” value came to 2.91%.
Under `COCCC(=O)N1CCC(Oc2ccc(C(=O)NC3CCCCC3)cc2)CC1` stands 10.8%; under `CCOc1cc(CN2CCN(Cc3ccc(C)o3)C(CCO)C2)ccc1OC` (stereo not drawn), 8.92%.
As to `CNC(=O)CSc1nc(-c2ccccc2)c(-c2ccccc2)o1`, the “hERG current change (%, negative = inhibition) at 1uM” value came out at 8.79%.
Under `COc1cc([N+](=O)[O-])cc(/C=N/NC(=O)C(C)Nc2cccc(C)c2)c1O` (stereo not drawn) stands 17.1%; under `O=C(/C=C/c1ccc(F)cc1)NCc1ccco1`, 1.6%; under `O=C(CSc1nccn1-c1ccccc1)NCc1ccc2c(c1)OCO2`, 1.01%.
Under `CC1CC(C)CN(C(=O)COC(=O)c2cc3ccccc3cc2O)C1` (stereo not drawn) stands 8.88%.
Under `CC(=O)N(C1=NCCCS1)c1ccccc1F` stands -0.361%; under `CCO[C@@H]1OC(C(=O)Nc2ccccc2)=C[C@H](c2ccc(Br)cc2)[C@H]1CCCO`, 14.4%.
Regarding `CC1CSc2nc3sc4c(c3c(=O)n21)CCCC4` (stereo not drawn), the “hERG current change (%, negative = inhibition) at 1uM” value came out at 7.6%.
Turning to `O=C(c1c(F)cccc1F)N1CCCC1`, the “hERG current change (%, negative = inhibition) at 1uM” value is reported as 2.7%.
Under `CCCCC(=O)NC(c1ccc(N(CC)CC)cc1)c1ccc2cccnc2c1O` (stereo not drawn) stands 10.4%.
Under `COc1cccc(CNC(=O)CCS(=O)(=O)c2ccc3c(c2)CC(C)N3C(=O)C2CC2)c1` (stereo not drawn) stands 4.69%.
Under `COc1cccc(N(CC(=O)NCc2ccco2)C(=O)CCC(=O)Nc2nccs2)c1` stands 12.5%; under `Cc1ccc(C(=O)Nc2ccc(Cl)cc2C(=O)c2ccccc2)cc1`, 4.87%; under `O=S(=O)(c1ccccc1)c1cnc(-c2cccnc2)nc1-c1ccc(Cl)c(Cl)c1`, 6.84%.
As to `O=C(Nc1ccc(S(=O)(=O)Nc2nccs2)cc1)C(F)(F)F`, the “hERG current change (%, negative = inhibition) at 1uM” value is 11.6%.
With `O=C(C1CCC1)N1CCN(c2ccnc3cc(Cl)ccc23)CC1`, the “hERG current change (%, negative = inhibition) at 1uM” value is given as -59.6%.
Under `CSc1ncccc1C(=O)N1CCCC(N2CCN(c3ccccc3F)CC2)C1` (stereo not drawn) stands 3.95%; under `Clc1ccc(CSc2nnc(-c3ccc4c(c3)OCO4)o2)cc1`, 1.19%.
As for `Cc1ccc(-n2nc(C)c3c2NC(=O)CSC3c2ccc3c(c2)OCO3)cc1` (stereo not drawn), the “hERG current change (%, negative = inhibition) at 1uM” value worked out at 13%.
In the case of `COc1ccc(-n2ccn(CC(=O)Nc3ccccc3OC)c(=O)c2=O)cc1`, the “hERG current change (%, negative = inhibition) at 1uM” value is 20.2%.
Under `CCOC(=O)C1Cc2ccccc2CN1.Cl` (stereo not drawn) stands 1.39%; under `COc1ccc(CCNC(=O)CCCn2c(SCC(N)=O)nc3cc4c(cc3c2=O)OCO4)cc1OC`, 4.44%.
For the molecule `C/C(=N\NC(=O)c1ccc(O)cc1)c1cccc(NC(=O)c2ccc(Cl)cc2)c1`, the “hERG current change (%, negative = inhibition) at 1uM” value came to 13.7%.
Under `CC(OC(=O)c1ccc2c(c1)S(=O)(=O)c1ccccc1C2=O)C(N)=O` (stereo not drawn) stands 16.9%; under `O=C(CN(Cc1ccco1)C(=O)Cn1nnc(-c2ccc(F)cc2)n1)NC1CCCC1`, -16.2%.
Under `COc1ccc(NC(=O)COc2ccccc2)cc1NC(=O)c1ccco1` stands -1.15%.
Under `O=C(Nc1cccc2ccccc12)c1cccc([N+](=O)[O-])c1` stands 9.63%; under `Cc1nc(-c2ccccc2)sc1C(=O)CSc1ccccc1`, 5.39%.
Take `O=C(CCN1C(=O)C2C3C=CC(C4CC34)C2C1=O)Nc1ccc(Cl)cc1O` (stereo not drawn): the “hERG current change (%, negative = inhibition) at 1uM” value was determined as 10.9%.
On to `CC(C)N1CC(O)=C(c2nc3ccccc3c(=O)[nH]2)C1=N`, for which the “hERG current change (%, negative = inhibition) at 1uM” value came out at 3.02%.
Under `O=C(C1CCN(c2ncnc3c2nc2n3CCCCC2)CC1)N1CCN(c2ccccc2F)CC1` stands -18.6%.
In the case of `Cc1nonc1CN(C)C(=O)c1ccc(OC2CCN(Cc3ccccn3)CC2)cc1`, the “hERG current change (%, negative = inhibition) at 1uM” value is recorded as -3.61%.
`Fc1ccc(/C=N/N2CCN(Cc3ccccc3)CC2)cc1`: the “hERG current change (%, negative = inhibition) at 1uM” value was -6.05%.
Under `CCSc1nnc(Cc2cc(=O)[nH]c(=O)[nH]2)n1-c1ccc(Cl)cc1` stands 5.25%.
In the case of `O=C(COc1ccc2ccccc2c1Br)Nc1ccncc1`, the “hERG current change (%, negative = inhibition) at 1uM” value was determined as 24.6%.
For `Cc1ccc(NC(=O)C2CCN(S(=O)(=O)c3c(C)n[nH]c3C)CC2)nc1`, the “hERG current change (%, negative = inhibition) at 1uM” value was determined as 0.34%.
Under `O=C(Nc1cccc(F)c1)C1CCN(C(=O)N2CCOc3ccccc32)CC1` stands -2.95%; under `COc1ccc(N2C(=O)CC(N3CCN(c4ccccc4OC)CC3)C2=O)cc1` (stereo not drawn), 11.7%.
Under `Cc1ccccc1N(CC(=O)N/N=C/c1ccc(F)cc1)C(=O)c1ccccc1` stands -2.14%; under `COc1ccc(Cl)cc1-c1nc(SCC(=O)NCCN2C(=O)CSC2=O)n[nH]1`, 10.1%; under `Cc1noc(C)c1C(=O)NCCc1ccc(S(N)(=O)=O)cc1`, -9.22%.
Under `COc1ccc(S(=O)(=O)NCCCN2CCCC2=O)cc1OC` stands 0.602%.
For `C=CCN1C(=O)/C(=C\c2ccc(N3CCOCC3)o2)C(=O)NC1=S`, the “hERG current change (%, negative = inhibition) at 1uM” value amounted to 5.44%.
Under `CCOC(=O)C1CCCN(c2c(NCCN3CCCCC3C)c(=O)c2=O)C1` (stereo not drawn) stands 10.8%; under `O=C1Nc2ccc([N+](=O)[O-])cc2OC1CCN1CCCC1` (stereo not drawn), 13.1%; under `c1ccc(N2CCN(c3nnc(Cc4cccnc4)c4ccccc34)CC2)nc1`, -4.9%.
Under `CCN(CC)c1ccc(/C=C2\SC(N)=NC2=O)cc1` stands 6.17%; under `O=C(C(=O)N1CCN(c2ccc(F)cc2)CC1)c1c[nH]c2ccccc12`, 2.91%; under `CCC(C(=O)Nc1c2c(nn1C(C)(C)C)CS(=O)(=O)C2)c1ccccc1` (stereo not drawn), -13.7%.
Under `COc1ccc(OC)c(CN2C(=O)c3ccccc3C2C(=O)NCc2cccnc2)c1` (stereo not drawn) stands 13%.
For `Cc1sc2ncnc(NCC(c3ccco3)N(C)C)c2c1C.O=C(O)C(=O)O` (stereo not drawn), the “hERG current change (%, negative = inhibition) at 1uM” value worked out at 4.18%.
Under `CCCC(C(=O)NC1CCCC1)N(Cc1ccccc1)C(=O)c1snc(C(N)=O)c1N` (stereo not drawn) stands 11.5%.
Under `Cc1cc(Oc2ccc(C(F)(F)F)cc2[N+](=O)[O-])c2c3c(c(=O)oc2c1)CCCC3` stands 13.1%; under `CC(=O)Nc1cccc(NC(=O)C2CCCN2C(=O)Nc2cccc(F)c2)c1` (stereo not drawn), 6.31%.
Under `CCOC(=O)c1ccc(N2Cc3ccccc3C2)cc1O` stands 8.1%; under `OCCC1CN(Cc2ccccn2)CCN1C1CCCC1` (stereo not drawn), 18.3%.
Take `Cc1c(Cl)cccc1NC(=S)NNc1ncc(C(F)(F)F)cc1Cl`: the “hERG current change (%, negative = inhibition) at 1uM” value is 4.45%.
Under `CCn1nc(C)c(CNC(=O)Nc2ccccc2C(=O)OC)c1C` stands 0.0515%; under `Cc1ccc(C(=O)Nc2nc(-c3ccccn3)cs2)cc1S(=O)(=O)N1CCOCC1`, 0.449%.
Under `O=C(N/N=C/c1cccc(Br)c1)C1CC(=O)N(c2ccccc2)C1` (stereo not drawn) stands 15.5%; under `COc1ccc(NC(=O)CSc2ccc(-c3ccco3)nn2)cc1`, 18.9%; under `COc1cccc(/C(C)=N/NC(=O)c2ccc(N(C)C)cc2)c1`, 12.5%.
Under `O=C(COC(=O)c1n[nH]c2ccccc12)NC(=O)NC1CCCCC1` stands 9.17%; under `O=C(NC(=S)Nc1nc(-c2ccccc2)cs1)c1cncc(Br)c1`, 12.3%.
On to `CC1=NN(c2ccccc2)C(=O)C1C(=O)C(=O)Nc1ccc(F)cc1` (stereo not drawn), for which the “hERG current change (%, negative = inhibition) at 1uM” value is listed as 17.3%.
On to `CCc1ccc(NC(=O)CC2C(=O)N(c3cccc(OC)c3)C(=O)N2CCOC)cc1` (stereo not drawn), for which the “hERG current change (%, negative = inhibition) at 1uM” value worked out at 12.8%.
Under `CCOC(=O)c1sc(C)c2c(=O)n(Cc3ccc(Cl)cc3)c(C)nc12` stands 3.44%; under `COC(=O)C[N+](C)(C)C/C=C\c1ccccc1.[Br-]`, 23.5%.
Under `CCN1CCN(C(=O)c2ccc3c(=O)n(CCc4ccccc4)c(=O)[nH]c3c2)CC1` stands 0.866%; under `Cc1cccnc1NC(=O)CCc1c[nH]c2ccccc12`, 7.74%; under `N#Cc1cccc(NC(=O)N2CCC(c3nc4c(nnn4Cc4cccc(Cl)c4)c(=O)[nH]3)CC2)c1`, 10.5%.
